Laboratory results as given in the supplement of paper PMC8728848.
This is one part of the list.

How the values were obtained:
Assay in all cases: glycan array binding signal (z-score within array); higher = stronger binding
Settings in all cases: glycan notation: IUPAC condensed, linker removed; mutation: D109R
[1] = target: Fuc(a1-2)[GalNAc(a1-3)]Gal(b1-3)GlcNAc(b1-3)GalNAc
Summary of the method: (§1)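 Glycan array data were curated from 3228 arrays in the Consortium for Functional Glycomics database and kept only where the protein sequence was available. Glycan names were converted to IUPAC-condensed notation, and columns mapping to the same glycan were averaged. The binding signal is a within-array Z-score, averaged across arrays of the same protein sequence at different concentrations or buffers and across linkers. Negative Z-scores can be read as non-binding.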

[2] = target: Fuc(a1-2)[GalNAc(a1-3)]Gal(b1-3)GlcNAc(b1-6)GalNAc
Summary of the method: as §1

[3] = target: Fuc(a1-2)[GalNAc(a1-3)]Gal(b1-4)Glc
Summary of the method: as §1

[4] = target: Fuc(a1-2)[GalNAc(a1-3)]Gal(b1-4)GlcNAc
Summary of the method: as §1

[5] = target: Fuc(a1-2)[GalNAc(a1-3)]Gal(b1-4)GlcNAc(b1-2)Man
Summary of the method: as §1

[6] = target: Fuc(a1-2)[GalNAc(a1-3)]Gal(b1-4)GlcNAc(b1-2)Man(a1-3)[Fuc(a1-2)[GalNAc(a1-3)]Gal(b1-4)GlcNAc(b1-2)Man(a1-6)]Man(b1-4)GlcNAc(b1-4)GlcNAc
Summary of the method: as §1

[7] = target: Fuc(a1-2)[GalNAc(a1-3)]Gal(b1-4)GlcNAc(b1-2)Man(a1-3)[Fuc(a1-2)[GalNAc(a1-3)]Gal(b1-4)GlcNAc(b1-2)Man(a1-6)]Man(b1-4)GlcNAc(b1-4)[Fuc(a1-6)]GlcNAc
Summary of the method: as §1

[8] = target: Fuc(a1-2)[GalNAc(a1-3)]Gal(b1-4)GlcNAc(b1-3)Gal(b1-4)GlcNAc
Summary of the method: as §1

[9] = target: Fuc(a1-2)[GalNAc(a1-3)]Gal(b1-4)GlcNAc(b1-3)Gal(b1-4)GlcNAc(b1-3)Gal(b1-4)GlcNAc
Summary of the method: as §1

[10] = target: Fuc(a1-2)[GalNAc(a1-3)]Gal(b1-4)GlcNAc(b1-3)GalNAc
Summary of the method: as §1

[11] = target: Fuc(a1-2)[GalNAc(a1-3)]Gal(b1-4)GlcNAc(b1-3)[Fuc(a1-2)[GalNAc(a1-3)]Gal(b1-4)GlcNAc(b1-6)]GalNAc
Summary of the method: as §1

[12] = target: Fuc(a1-2)[GalNAc(a1-3)]Gal(b1-4)GlcNAc(b1-6)GalNAc
Summary of the method: as §1

[13] = target: Fuc(a1-2)[GalNAc(a1-3)]Gal(b1-4)[Fuc(a1-3)]GlcNAc
Summary of the method: as §1

[14] = target: Fuc(a1-2)[GalNAc(a1-3)]Gal(b1-4)[Fuc(a1-3)]GlcNAc(b1-3)GalNAc
Summary of the method: as §1

[15] = target: Fuc(a1-2)[GalNAc(a1-4)]Gal(b1-4)GlcNAc
Summary of the method: as §1

[16] = target: Fuc(a1-2)[GalNAc(b1-3)]Gal
Summary of the method: as §1

Fuc(a1-3)GlcNAc = target: Fuc(a1-3)GlcNAc
Summary of the method: as §1

[17] = target: Fuc(a1-3)[Gal(b1-4)]Glc6S
Summary of the method: as §1

[18] = target: Fuc(a1-3)[Gal(b1-4)]GlcNAc
Summary of the method: as §1

[19] = target: Fuc(a1-3)[Gal(b1-4)]GlcNAc(b1-2)Man
Summary of the method: as §1

[20] = target: Fuc(a1-3)[Gal(b1-4)]GlcNAc(b1-2)Man(a1-3)[Fuc(a1-3)[Gal(b1-4)]GlcNAc(b1-2)Man(a1-6)]Man(b1-4)GlcNAc(b1-4)GlcNAc
Summary of the method: as §1

[21] = target: Fuc(a1-3)[Gal(b1-4)]GlcNAc(b1-2)Man(a1-3)[Fuc(a1-3)[Gal(b1-4)]GlcNAc(b1-2)Man(a1-6)]Man(b1-4)GlcNAc(b1-4)[Fuc(a1-6)]GlcNAc
Summary of the method: as §1

[22] = target: Fuc(a1-3)[Gal(b1-4)]GlcNAc(b1-3)Gal(b1-3)[Fuc(a1-4)]GlcNAc
Summary of the method: as §1

[23] = target: Fuc(a1-3)[Gal(b1-4)]GlcNAc(b1-3)Gal(b1-4)[Fuc(a1-3)]GlcNAc
Summary of the method: as §1

[24] = target: Fuc(a1-3)[Gal(b1-4)]GlcNAc(b1-3)Gal(b1-4)[Fuc(a1-3)]GlcNAc(b1-3)Gal(b1-4)[Fuc(a1-3)]GlcNAc
Summary of the method: as §1

[25] = target: Fuc(a1-3)[Gal(b1-4)]GlcNAc(b1-3)GalNAc
Summary of the method: as §1

[26] = target: Fuc(a1-3)[Gal(b1-4)]GlcNAc(b1-6)GalNAc
Summary of the method: as §1

[27] = target: Fuc(a1-3)[Gal(b1-4)]GlcNAc(b1-6)[Gal(b1-3)GlcNAc(b1-3)]Gal(b1-4)Glc
Summary of the method: as §1

[28] = target: Fuc(a1-3)[Gal(b1-4)]GlcNAc6S
Summary of the method: as §1

[29] = target: Fuc(a1-3)[Gal3S(b1-4)]Glc
Summary of the method: as §1

[30] = target: Fuc(a1-3)[Gal3S(b1-4)]GlcNAc
Summary of the method: as §1

[31] = target: Fuc(a1-3)[Gal3S(b1-4)]GlcNAc6S
Summary of the method: as §1

[32] = target: Fuc(a1-3)[GalNAc(b1-4)]GlcNAc
Summary of the method: as §1

[33] = target: Fuc(a1-3)[GalNAc(b1-4)]GlcNAc6S
Summary of the method: as §1

Fuc(a1-4)GlcNAc = target: Fuc(a1-4)GlcNAc
Summary of the method: as §1

Fuc(b1-3)GlcNAc = target: Fuc(b1-3)GlcNAc
Summary of the method: as §1

Gal(a1-2)Gal = target: Gal(a1-2)Gal
Summary of the method: as §1

Gal(a1-3)Gal = target: Gal(a1-3)Gal
Summary of the method: as §1

Gal(a1-3)Gal(b1-3)GlcNAc = target: Gal(a1-3)Gal(b1-3)GlcNAc
Summary of the method: as §1

[34] = target: Gal(a1-3)Gal(b1-3)GlcNAc(b1-2)Man
Summary of the method: as §1

[35] = target: Gal(a1-3)Gal(b1-3)GlcNAc(b1-2)Man(a1-3)[Gal(a1-3)Gal(b1-3)GlcNAc(b1-2)Man(a1-6)]Man(b1-4)GlcNAc(b1-4)GlcNAc
Summary of the method: as §1

[36] = target: Gal(a1-3)Gal(b1-3)GlcNAc(b1-3)GalNAc
Summary of the method: as §1

[37] = target: Gal(a1-3)Gal(b1-3)GlcNAc(b1-6)GalNAc
Summary of the method: as §1

[38] = target: Gal(a1-3)Gal(b1-3)[Fuc(a1-4)]GlcNAc(b1-2)Man(a1-3)[Gal(a1-3)Gal(b1-3)[Fuc(a1-4)]GlcNAc(b1-2)Man(a1-6)]Man(b1-4)GlcNAc(b1-4)GlcNAc
Summary of the method: as §1

Gal(a1-3)Gal(b1-4)Glc = target: Gal(a1-3)Gal(b1-4)Glc
Summary of the method: as §1

B1: MpL2 (Macrolepiota procera) (protein)
chain: MSTQVSSGQTYKITNVKAGTVIDLSGEDNKSIIGYPYHSGKNQQWTFNWTGKAWTLRSASSGSYLGIEGTPADGTRLVAVNDPFEWHIWRDEANENAFRIFVPFTNYNLRLSGYGDTTPGTPVQLWWTWEGLHQTWTIDRP
[1]
  glycan array binding signal (z-score): -0.187
[2]
  glycan array binding signal (z-score): -0.29
[3]
  glycan array binding signal (z-score): -0.247
[4]
  glycan array binding signal (z-score): -0.264
[5]
  glycan array binding signal (z-score): -0.302
[6]
  glycan array binding signal (z-score): -0.274
[7]
  glycan array binding signal (z-score): -0.241
[8]
  glycan array binding signal (z-score): -0.263
[9]
  glycan array binding signal (z-score): -0.197
[10]
  glycan array binding signal (z-score): -0.293
[11]
  glycan array binding signal (z-score): -0.266
[12]
  glycan array binding signal (z-score): -0.295
[13]
  glycan array binding signal (z-score): -0.222
[14]
  glycan array binding signal (z-score): -0.088
[15]
  glycan array binding signal (z-score): -0.338
[16]
  glycan array binding signal (z-score): -0.247
Fuc(a1-3)GlcNAc
  glycan array binding signal (z-score): -0.272
[17]
  glycan array binding signal (z-score): -0.275
[18]
  glycan array binding signal (z-score): -0.256
[19]
  glycan array binding signal (z-score): -0.293
[20]
  glycan array binding signal (z-score): -0.267
[21]
  glycan array binding signal (z-score): -0.216
[22]
  glycan array binding signal (z-score): -0.285
[23]
  glycan array binding signal (z-score): -0.257
[24]
  glycan array binding signal (z-score): -0.272
[25]
  glycan array binding signal (z-score): -0.254
[26]
  glycan array binding signal (z-score): -0.191
[27]
  glycan array binding signal (z-score): 0.236
[28]
  glycan array binding signal (z-score): -0.237
[29]
  glycan array binding signal (z-score): -0.239
[30]
  glycan array binding signal (z-score): -0.247
[31]
  glycan array binding signal (z-score): -0.255
[32]
  glycan array binding signal (z-score): -0.239
[33]
  glycan array binding signal (z-score): -0.26
Fuc(a1-4)GlcNAc
  glycan array binding signal (z-score): -0.251
Fuc(b1-3)GlcNAc
  glycan array binding signal (z-score): -0.258
Gal(a1-2)Gal
  glycan array binding signal (z-score): -0.285
Gal(a1-3)Gal
  glycan array binding signal (z-score): -0.242
Gal(a1-3)Gal(b1-3)GlcNAc
  glycan array binding signal (z-score): -0.242
[34]
  glycan array binding signal (z-score): -0.239
[35]
  glycan array binding signal (z-score): -0.213
[36]
  glycan array binding signal (z-score): -0.237
[37]
  glycan array binding signal (z-score): -0.272
[38]
  glycan array binding signal (z-score): -0.234
Gal(a1-3)Gal(b1-4)Glc
  glycan array binding signal (z-score): -0.236
